This is one part of the list. Many values rest on one well or one pass, so single values are uncertain.
Experiments:
Experiment in all cases: cell count relative to DMSO control; melanoma cells; higher = more viable cells
Details in all cases: library dose: standard library concentration; 72 h
[1] = test system: 501Mel
[2] = test system: A101D
[3] = test system: A2058
[4] = test system: A375
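Also: cells treated in 1,536-well plates, then fixed and DAPI-stained, with nuclei counted from automated high-throughput microscope images.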

Row | Structure (SMILES) | cell count [1] [%] | cell count [2] [%] | cell count [3] [%] | cell count [4] [%]
1 | c1cc(-c2cnn3cc(-c4ccc(OCCN5CCCCC5)cc4)cnc23)ccn1 [Dorsomorphin] + O=C(Oc1ccc([N+](=O)[O-])cc1)N1CCC(C(O)(c2ccc3c(c2)OCO3)c2ccc3c(c2)OCO3)CC1 [JZL184] (first compound 2 µM, partner dose 5 µM) | 43.9 | 83.7 | 86.1 | 80.2
2 | Cc1cc(Nc2cc(N3CCN(C)CC3)nc(Sc3ccc(NC(=O)C4CC4)cc3)n2)n[nH]1 [Tozasertib] + C[As](C)SC[C@H](NC(=O)CC[C@H](N)C(=O)O)C(=O)NCC(=O)O [Darinaparsin] (first compound 0.03 µM, partner dose 2 µM) |  | 96.5 | 79 | 79.5
3 | Clc1ccc(Nc2nnc(Cc3ccncc3)c3ccccc23)cc1 [vatalanib] + C[As](C)SC[C@H](NC(=O)CC[C@H](N)C(=O)O)C(=O)NCC(=O)O [Darinaparsin] (first compound 10 µM, partner dose 2 µM) |  | 78.8 | 73.1 | 69.1
4 | CO[C@H]1C[C@@H]2CC[C@@H](C)[C@@](O)(O2)C(=O)C(=O)N2CCCC[C@H]2C(=O)O[C@H]([C@H](C)C[C@@H]2CC[C@@H](OCCO)[C@H](OC)C2)CC(=O)[C@H](C)/C=C(\C)[C@@H](O)[C@@H](OC)C(=O)[C@H](C)C[C@H](C)/C=C/C=C/C=C/1C [everolimus] + Cc1cc(SCc2sc(-c3ccc(C(F)(F)F)c(F)c3)nc2C)ccc1OCC(=O)O [GW0742] (first compound 0.1 µM, partner dose 10 µM) | 78 | 74.6 | 79.7 | 101
